{
  "source": "the supplement of paper PMC11417369",
  "note": "± gives the standard deviation of the averaged measurements. The list shows a part of the results.",
  "data": [
    {"test_system": "PfAP2-I AP2 domain 3 (GST-tagged)", "test": "gcPBM binding intensity (ln(normalized median fluorescence intensity)); higher = stronger DNA binding", "summary_of_the_method": "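DNA-binding domains from P. falciparum, fused to GST and produced in E. coli, were put on an Agilent 4 × 180k double-stranded probe array for 1 h in 1× PBS holding 1% milk, 0.2 mg/ml BSA, 0.5% salmon testes DNA and 0.03% Triton X-100. Probes were primer-extended, 36 bp long and drawn from intergenic genomic regions, with negative controls included. After Alexa488 anti-GST antibody detection and a 488 nm scan, binding intensity was set as the highest Masliner-normalised natural-log median intensity across replicate spots of either probe orientation.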", "values": [
      {"sequence": "TCCTTACCTATTAAAGCATGCTCGAATATATATTTT [TGCATGCA_site53]", "gcPBM binding intensity (ln)": "7.88 ± 0.7"},
      {"sequence": "GTGGACGAAATAGTTGTAAATTTATGTGCAAACCTC [XGTACX_negctrl_site564]", "gcPBM binding intensity (ln)": "8.82 ± 0.41"},
      {"sequence": "ATATATATATCATATTGTACATACTTGTATTTATAT [XGTACX_site2432]", "gcPBM binding intensity (ln)": "9.21 ± 0.13"},
      {"sequence": "AACAAAATAAATGTATGTACATATATATATATATAT [XGTACX_site7974]", "gcPBM binding intensity (ln)": "9.28 ± 1.1"},
      {"sequence": "TATATTAAATATTACACACATACATTTAGTGTCAAA [CACACA_site1990]", "gcPBM binding intensity (ln)": "7.7 ± 0.35"},
      {"sequence": "TGGGAGCACAGACACACACACACACCGATATATATA [CACACA_site8001]", "gcPBM binding intensity (ln)": "8.45 ± 0.67"},
      {"sequence": "GCATAAATCAAACACACACACATATATATATATATA [CACACA_site2422]", "gcPBM binding intensity (ln)": "9.29 ± 0.23"},
      {"sequence": "AATGAATATAGTACTGAATGTAATTTAAGGTTTTCC [CACACA_negctrl_site1548]", "gcPBM binding intensity (ln)": "7.53 ± 0.68"},
      {"sequence": "TATAATGGATGCTAGCTGCACTAATAAGCAAAAATA", "gcPBM binding intensity (ln)": "9.73 ± 0.071"},
      {"sequence": "GATGATATATATTAGCGTACATGTATATATACCATT [XGTACX_site6404]", "gcPBM binding intensity (ln)": "7.81 ± 0.49"},
      {"sequence": "TAAATGAGAAGGACTGCACACTAAAATGGAAGGAGA [CACACA_site8449]", "gcPBM binding intensity (ln)": "8.23 ± 0.71"},
      {"sequence": "TATTTGTATATATGTGTGCACGTATAATCCATTAAA [GTGCAC_site9569]", "gcPBM binding intensity (ln)": "10.7 ± 0.29"},
      {"sequence": "AAAATTTCAAATAACACACACTAATATATATCTGTA [CACACA_site4904]", "gcPBM binding intensity (ln)": "7.58 ± 0.54"},
      {"sequence": "ACATAAATAATAAAAACACACATATGTACAGATATA [CACACA_site5112]", "gcPBM binding intensity (ln)": "7.84 ± 0.56"},
      {"sequence": "AATGGTACATGATACACACACGCACATATATATATT [CACACA_site3425]", "gcPBM binding intensity (ln)": "7.9 ± 0.55"},
      {"sequence": "ATGTAGATATATATATGTACTAATTAGTAGTTTACG [XGTACX_site6275]", "gcPBM binding intensity (ln)": "8 ± 0.41"},
      {"sequence": "AGAAAAAATAAAAATAGTACTCAAAAAATTATGAAT [XGTACX_site4908]", "gcPBM binding intensity (ln)": "7.57 ± 0.42"},
      {"sequence": "AGAAAAAAAAAACACACACACACACCCTCAATATAA [CACACA_site39]", "gcPBM binding intensity (ln)": "7.75 ± 0.44"},
      {"sequence": "ATTTATATATTGCCCACACACATGTGATTATTTATA [CACACA_site1714]", "gcPBM binding intensity (ln)": "8.41 ± 0.42"},
      {"sequence": "ATATTAAAAAGAAGTGTGCGCAAAACATTAACTTGA", "gcPBM binding intensity (ln)": "9.01 ± 0.5"},
      {"sequence": "AATGGATGGTCCAAATGTACATATATATATATATAT [XGTACX_site4800]", "gcPBM binding intensity (ln)": "9.39 ± 0.68"},
      {"sequence": "TAAATAAACCTGACTTGTACATGTAAAATAAATATA [XGTACX_site1667]", "gcPBM binding intensity (ln)": "7.61 ± 0.53"},
      {"sequence": "AAAAAAAAAAAAAAAACACACATTTCTTTTTCATAT [CACACA_site11]", "gcPBM binding intensity (ln)": "8.79 ± 0.42"},
      {"sequence": "AATAATAATATATGTAGTACACATTTCCATTATGTT [XGTACX_site3708]", "gcPBM binding intensity (ln)": "7.75 ± 0.27"},
      {"sequence": "TTAATTATATATAAAAGTACTTATTTTTCCATATAA [XGTACX_site3033]", "gcPBM binding intensity (ln)": "7.48 ± 0.37"},
      {"sequence": "TAATAGGAAATTATAGGTACACATACAAATAAATAA [XGTACX_site3587]", "gcPBM binding intensity (ln)": "7.87 ± 0.54"},
      {"sequence": "AAAATAACGAGTCAAACACACATATTTATATTTATA [CACACA_site7050]", "gcPBM binding intensity (ln)": "7.45 ± 0.53"},
      {"sequence": "TAATATAACTACATAACACACGAAAATATATGAATC [CACACA_site3628]", "gcPBM binding intensity (ln)": "8.01 ± 0.77"},
      {"sequence": "TCATTAATCAGGTATGCATGCATAACTATTAAAAAT [TGCATGCA_site90]", "gcPBM binding intensity (ln)": "7.75 ± 0.8"},
      {"sequence": "GTTATAAATGCATATACACACATACGTACATACATA [CACACA_site7655]", "gcPBM binding intensity (ln)": "8.21 ± 0.5"},
      {"sequence": "TCTTTTTTTTTTATTTGTACTTATTTTTTTCAAAAA [XGTACX_site3403]", "gcPBM binding intensity (ln)": "8.24 ± 0.51"},
      {"sequence": "TTATATGAAAAAATATGTACGTATAATGAGAAATAT [XGTACX_site8987]", "gcPBM binding intensity (ln)": "8.36 ± 0.63"},
      {"sequence": "AAATAGATAAACTAAACACACAAAAAAAAAAAAAAT [CACACA_site1179]", "gcPBM binding intensity (ln)": "7.61 ± 0.66"},
      {"sequence": "ATTTTAATACTTTTATATTAAATGTAGCACATCATA [XGTACX_negctrl_site273]", "gcPBM binding intensity (ln)": "7.83 ± 0.4"},
      {"sequence": "AAAAAGTGATTAAAATGTACAAAATGCATAAAAGAA [XGTACX_site6625]", "gcPBM binding intensity (ln)": "8.68 ± 0.68"},
      {"sequence": "AAAGTAAAAAAAAAAACATGCATACGCTAATTTTTA [TGCATGCA_site301]", "gcPBM binding intensity (ln)": "7.49 ± 0.54"},
      {"sequence": "GATATGTTAAATATATGTACATATATAAACCCAAAC [XGTACX_site6601]", "gcPBM binding intensity (ln)": "8.15 ± 0.54"},
      {"sequence": "TTATTTATTTAGTAGTGTACTTTTTATATTTATAAT [XGTACX_site5978]", "gcPBM binding intensity (ln)": "7.74 ± 0.47"},
      {"sequence": "CATTTTTTGCTTTCAACACACATACAATATAAATAA [CACACA_site7858]", "gcPBM binding intensity (ln)": "8.21 ± 0.37"},
      {"sequence": "AAAAAAAAAAAATACACACACATATATATATATATA [CACACA_site2224]", "gcPBM binding intensity (ln)": "9.46 ± 0.32"},
      {"sequence": "TATGTAATAAATAGTACACACACACCGATATATATA [CACACA_site8389]", "gcPBM binding intensity (ln)": "8.27 ± 0.59"},
      {"sequence": "TATAATAATATTATAGTGCATATTATTTATATATAA [GTGCAC_site9820]", "gcPBM binding intensity (ln)": "9.72 ± 0.16"},
      {"sequence": "ATTTTTATTTTCTTTACACACCACATAACTTTTTTT [CACACA_site7826]", "gcPBM binding intensity (ln)": "8.29 ± 0.46"},
      {"sequence": "ACTTTTTAATATTTTAGTACACAGTAATTCTTACTA [XGTACX_site1425]", "gcPBM binding intensity (ln)": "8.3 ± 0.49"},
      {"sequence": "ATATATATATATATATGTACATATATCTACATATAT [XGTACX_site7588]", "gcPBM binding intensity (ln)": "9.29 ± 0.81"}
    ]}
  ]
}
